For the experiment, the target named is T1, antigen 4-1BB (Sino Biological, Cat. No. 10041-H08H) (UniProt Q07011 24-186).
T1 construct: Bought protein used as SPR analyte; also called CD137
Briefly: SPR (Biacore T200), sample captured on the chip by Fc, 4-1BB as analyte. In general terms: Surface plasmon resonance follows binding to a sensor surface in real time, without labels.

T1 sequence (Q07011 24-186 limits assumed): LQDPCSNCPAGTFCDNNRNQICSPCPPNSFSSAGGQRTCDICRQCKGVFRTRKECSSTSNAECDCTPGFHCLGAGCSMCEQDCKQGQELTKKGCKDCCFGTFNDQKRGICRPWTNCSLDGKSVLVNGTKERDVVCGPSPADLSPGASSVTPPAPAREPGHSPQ

B1: VHH1-Fc (Fc fusion)
chain: EVQLVESGGGLVQPGGSLRLSCAASGFTFSSYAMGWVRQAPGKGREFVSAISGNGGSTYYADSVKGRFTISRDNSKNTLYLQMNSLRAEDTAVYYCAAGYSYLYPGGLSTRPSFYDYWGQGTQVTVSSGGGGSGGGGS[human IgG1 Fc with changes not written out]
notes: also called 4-1BB-VHH-Fc fusion protein
The Kd is the concentration at which binding is half-saturated. In general, koff refers to a measure of how fast the partners let go of each other. Usually kon stands for the second-order rate constant of association. Read a low kon as slow association. Molecule B1 gave a Kd of 250 nM, an off-rate constant (koff) of 0.00733 s⁻¹ and a kon of 29300 M⁻¹ s⁻¹.

B2: VHH2-Fc (Fc fusion)
chain: EVQLVESGGGLVQPGGSLRLSCAASGFTFSSYAMGWVRQAPGKGREFVSAISGNGGSTYYADSVKGRFTISRDNSKNTLYLQMNSLRAEDTAVYYCAAGDAYVYPYGVSTDPSFYDYWGQGTQVTVSSGGGGSGGGGS[human IgG1 Fc with changes not written out]
notes: as for B1
As to B2, the Kd is 77.1 nM, the koff came out at 0.00232 s⁻¹ and the kon was found to be 30200 M⁻¹ s⁻¹.

B3: VHH13-Fc (Fc fusion)
chain: EVQLVESGGGLVQPGGSLRLSCAASGFTFSSYAMGWVRQAPGKGREFVSAISGYGGTTYYADSVKGRFTISRDNSKNTLYLQMNSLRAEDTAVYYCAAGTGYYSRVGVSTDPSFYDYWGQGTQVTVSSGGGGSGGGGS[human IgG1 Fc with changes not written out]
notes: as for B1
In the case of B3, the Kd was found to be 96.4 nM, the koff came to 0.00487 s⁻¹ and the kon came out at 50500 M⁻¹ s⁻¹.

B4: VHH8-Fc (Fc fusion)
chain: EVQLVESGGGLVQPGGSLRLSCAASGFTFSSYAMGWVRQAPGKGREFVSAISGNGGSTFYADSVKGRFTISRDNSKNTLYLQMNSLRAEDTAVYYCAAGYSYLYPGGLSTRPSFYDYWGQGTQVTVSSGGGGSGGGGS[human IgG1 Fc with changes not written out]
notes: as for B1
Regarding B4, the Kd was 151 nM, the koff was 0.00735 s⁻¹ and the kon is 48600 M⁻¹ s⁻¹.

B5: VHH6-Fc (Fc fusion)
chain: EVQLVESGGGLVQPGGSLRLSCAASGFTFSSYAMGWVRQAPGKGREFVSAISGSGGSTYYADSVKGRFTISRDNSKNTLYLQMNSLRAEDTAVYYCAAGYSYLYPGGLSTRPSFYDYWGQGTQVTVSSGGGGSGGGGS[human IgG1 Fc with changes not written out]
notes: as for B1
Consider B5, for which binding was characterised by a dissociation constant (Kd) of 153 nM, the koff amounted to 0.00854 s⁻¹ and the kon is 55700 M⁻¹ s⁻¹.

The record behind these values is patent EP4737479A1 (Bio-Thera Solutions, Ltd., dated 2026).
